In the supplement of paper PMC11417369:
± gives the standard deviation of the averaged measurements. Some of the results follow.

Test system: PfAP2-G AP2 domain (GST-tagged)
Test: gcPBM binding intensity (ln(normalized median fluorescence intensity)); higher = stronger DNA binding
In short: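 An Agilent 4 × 180k array carrying primer-extended double-stranded 36-bp intergenic genomic probes and negative controls received GST-tagged P. falciparum DNA-binding domains expressed in E. coli, about 25 μg on average, for 1 h. The binding buffer contained 1× PBS, 1% milk, 0.2 mg/ml BSA, 0.5% salmon testes DNA and 0.03% Triton X-100. Binding intensity is the top Masliner-normalised natural-log median intensity across replicate spots of either probe orientation, read after Alexa488 anti-GST antibody staining and a 488 nm scan.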

Row | Sequence | gcPBM binding intensity (ln)
1 | CCCAATAATTAAACAACACACATATTTATAGGTAAT [CACACA_site7445] | 9.92 ± 0.057
2 | TATATGACAAGATAAAGTACAAATTTGTATATATAT [XGTACX_site3027] | 11 ± 0.61
3 | ATATATTTATATATTACACACAATATTGTAGACATA [CACACA_site4669] | 10.1 ± 0.16
4 | AAAAATAAAAAAAGCACACACATATAAATAAATATA [CACACA_site6968] | 9.955 ± 0.049
5 | TAATTTTTCTTTTATTAACACACATATAAATAAATA [CACACA_site8935] | 10 ± 0.26
6 | ATATATATACTGTGTACACAAATATATATTATATAT [CACACA_site6104] | 11.6 ± 0.84
7 | AACCATTTTAAATATGCACACAGATGCACTAACACA [CACACA_site8565] | 10.3 ± 0.2
8 | GAATTATATAATTAAAGTACATTGTTTATATAATCA [XGTACX_site7246] | 11 ± 0.68
9 | TAAAATAAAAAGTTTACACACATATATAATTTTAAT [CACACA_site662] | 9.82 ± 0.042
10 | AACATAAAAAAAATATGTACATATATAATATATATA [XGTACX_site3764] | 11.2 ± 0.78
11 | TTTACACGTACGTGTACACACAAAAATATGTTTTTA [CACACA_site995] | 11.6 ± 0.89
12 | GAAAGAAATAAAGGTGGTACATAAATAAAAACTAAG [XGTACX_site4826] | 11.5 ± 0.77
13 | AAATTCCACGGACACACACACATATAAATAAATAAA [CACACA_site4811] | 11.2 ± 0.86
14 | TGTAGTCTGGAGAAAAGTACATAGTATCTGGTAGCT [XGTACX_site2031] | 11.3 ± 0.81
15 | ATTTATATGGTTTGCACACATAACAACTATGGTTAT [CACACA_site3632] | 10.21 ± 0.042
16 | AAAAAAAAAAAAAAAAGTACACAAATAGATTTATAT [XGTACX_site3727] | 11.6 ± 0.88
17 | ATTCTATTTTTTATAAAACCATGTCATCAACATAGG [CACACA_negctrl_site237] | 10.2 ± 0.15
18 | AAAAAAAAAGAAAAATGTACATACATAAATATATAT [XGTACX_site5664] | 11.1 ± 0.64
19 | ATTATAAACCATAATTAACACACAAAATAAGTTACA [CACACA_site9057] | 10.2 ± 0.17
20 | TATTTTAGTAAAGGTGGTACTTTTAAGTTCATGTAT [XGTACX_site1854] | 11.2 ± 0.74
21 | TCCTTTCAACCATATATAATGACATGTACTCAAAAA [GTGCAC_negctrl_site417] | 11.5 ± 0.99
22 | CATCCATATAAAATATGTACATATATATATATATAT [XGTACX_site5859] | 11.2 ± 0.73

Row | Sequence | gcPBM binding intensity (ln)
23 | TATATATCAAGACACACACACATATATTTATTTATA [CACACA_site7733] | 10.05 ± 0.035
24 | GATAATTTATTTTTTCGTACACAAAATATAATATAT [XGTACX_site1470] | 11.3 ± 0.91
25 | TGAGTTCAACAAAGACGTACAAAACCAAAAATATAA [XGTACX_site8931] | 11.6 ± 0.93
26 | TTTTTTTTTTTTTTTTGATACATTAACCTACAATGG [GTGCAC_negctrl_site625] | 9.87 ± 0.41
27 | TCGTGAGAAAATATTACACACATTTACTATAGTATC [CACACA_site3444] | 9.76 ± 0.16
28 | TTTTTTAAAGATTACTCAAAAAAATAAAAAAATAAA [GTGCAC_negctrl_site222] | 9.93 ± 0.16
29 | AAAATTTATAAAAGCACACAAAATAAAAAAAAATGA [CACACA_site1491] | 10.06 ± 0.078
30 | TGTACGAGTCGTAGAGTGCAGTCTGGAGAAGAGTAC [GTGCAC_site9684] | 11 ± 0.52
31 | CAATGTTAACATATTACACACATATGTATATAGAAT [CACACA_site2732] | 10.24 ± 0.049
32 | CTTACGTATTAAGTGTGTCCGTAGTGTTCATAGTTC [XGTACX_site8913] | 10.9 ± 0.47
33 | TTATAATATGTATACACACACATATATAAATATATA [CACACA_site2326] | 10 ± 0.22
34 | TTTTGTTATATACAATAGATCAGAAGAAATGAAGTT [CACACA_negctrl_site1579] | 10.04 ± 0.064
35 | ATATTGGAATAAATTTGTACATATATATATTATTCA [XGTACX_site916] | 10.9 ± 0.54
36 | TATATATGTATATATTTTATAAGTATGCAAGAAAAT [TGCATGCA_negctrl_site486] | 10.1 ± 0.2
37 | ATATATATATGTATATGTACTTATATTATTGTTTGT [XGTACX_site1466] | 11.2 ± 0.75
38 | CTATAATTATGATGAAGTACATATGAGTTCAAAAAA [XGTACX_site3070] | 11.3 ± 0.87
39 | AATATATGGTTTCATGATATTAAATACAATTTAATG [CACACA_negctrl_site1503] | 10 ± 0.15
40 | TTATTATTATATTCTACATGCAGTTTGTGTAGAACA [TGCATGCA_site455] | 9.94 ± 0.057
41 | TGAACTCAACAAAGGGTGCATAACAAAAATAGACGT | 10.6 ± 0.34
42 | GTAAAAGAACGGCATGCATGAAAAATATTACACATG [TGCATGCA_site143] | 10 ± 0.085
43 | ACATAATGCTAGACACGTACGTACATCCGTGAGGTT [XGTACX_site4156] | 11.6 ± 0.67
44 | AAAAATATAAACACCAGTACACAAACCTATAATGGA [XGTACX_site3846] | 11.2 ± 0.61
